Results from patent US7238525B2, “Strategy for leukemia therapy” (The Regents of the University of California, priority 2000, dated 2007).

Test system: TonB210 cells
Assay: Tyrosine-phosphorylated proteins in total cell lysates, TonB210
Conditions: at the end of drug treatments

## Cc1ccc(NC(=O)c2ccc(CN3CCN(C)CC3)cc2)cc1Nc1nccc(-c2cccnc2)n1 [STI571, 4-[(4-methyl-piperazinyl)methyl]-N-[4-methyl-3-[[4-(3-pyrodnyl)-2-pyrimidinyl]amin]phenyl]benzamide methanesul-fonate]
  overall levels of tyrosine-phosphorylated proteins: decreased
